Test results taken from PubChem BioAssay AID463173 (ICCB-Longwood Screening Facility, Harvard Medical School, 2010).
Screen size: about 52,000 compounds; about 1,700 (3.3%) were called active. Rule as the data show it: active = survival mostly below about 52% (no sharp cut-off); inactive = mostly above about 56%. This is one part of the list.

The molecules below were run on Wild type (assay: S. aureus survival, RN4220 and DeltatarO strains – OD600, teichoic acid synthesis inhibitors, primary screen (AID 463173)). Conditions: S. aureus RN4220 wild type/DeltatarO growth, OD600, 18 h, active compounds read low, screened at 18.75 µg/mL (by protocol).
For CSCCC(NS(=O)(=O)c1ccc2c(c1)oc(=O)n2C)C(=O)NCc1ccc(Cl)cc1 (stereo not given), the survival was inactive: 83%.
With COc1ccccc1NC(=O)c1ccc(C)o1 the survival was inactive: 104%.
CCS(=O)(=O)c1ncc(N(Cc2ccccc2)Cc2ccco2)c(C(=O)Nc2ccccc2C)n1 was tested, and the survival was inactive: 89%.
For CCOC(=O)c1cccc(N(C(=O)Cn2nnc3ccccc32)C(C(=O)NCC2CCCO2)c2nc3ccccc3n2C)c1 (stereo not given), the survival was inactive: 103%.
CCc1ccccc1S(=O)(=O)Cc1ccc(C(=O)NCCc2ccc(Cl)cc2)o1 was tested, and the survival was inactive: 81%.
With O=C(Nc1cc(-c2cccc(Cl)c2)nn1-c1ccccc1)c1ccccc1F the survival was inactive: 72%.
With O=C(Cc1ccc(Cl)cc1)NCCc1csc2nc(-c3ccccc3F)nn12 the survival was inactive: 69%.
CC(C)CCNc1nc(Nc2ccccc2)c2cnn(C)c2n1 was tested, and the survival was inactive: 71%.
In the case of CCOC(=O)c1ccc(-n2c(CCC(=O)O)ccc2-c2ccccc2)cc1O, the survival is reported as inactive: 60%.
In the case of CCC(C)(C)NC(=O)C(NS(=O)(=O)c1cccs1)c1ccccc1 (stereo not given), the survival is reported as inactive: 82%.
For Cc1cc(F)ccc1Nc1nc2ccc(Cl)cc2n2cnnc12, the survival was inactive: 74%.
With COc1ccc(N2CCN(C(=O)C(CC(C)C)NS(=O)(=O)c3ccc4nc(C)sc4c3)CC2)cc1 (stereo not given) the survival was inactive: 73%.
CCOC(=O)C1=C(CN2c3ccccc3CC2C)NC(=O)NC1c1ccccc1 (stereo not given) was tested, and the survival was inactive: 115%.
With CC(CC(=O)Nc1ccc(F)cc1)S(=O)(=O)c1cc2c3c(c1)CCN3C(=O)CC2 (stereo not given) the survival was inactive: 83%.
With O=C(Cn1nnc2ccccc2c1=O)NC1CCCCC1 the survival was inactive: 105%.
O=C(NC1CCCCC1)c1ccc2c(c1)N(Cc1cccc(Cl)c1)C(=O)c1ccccc1S2(=O)=O was tested, and the survival was inactive: 88%.
For Cc1ccc(CNc2cc(C)nc3nc(-c4ccc(C)cc4)nn23)cc1, the survival was inactive: 66%.
With COC(=O)c1ccccc1NC(=O)CSc1nc2ccccc2nc1Cc1ccc(F)cc1 the survival was inactive: 76%.
For CNc1ccc(-c2nc(-c3ccncc3)no2)cc1[N+](=O)[O-], the survival was inactive: 120%.
For c1ccc(Sc2ncnc3c2oc2ccccc23)cc1, the survival was inactive: 111%.
In the case of CC1Oc2ccccc2N(CC(=O)c2ccccc2)C1=O (stereo not given), the survival is reported as inactive: 102%.
COc1ccc(CNC(=O)CCc2c(C)nc3cc(-c4ccc(OC)cc4OC)nn3c2C)cc1 was tested, and the survival was inactive: 80%.
For Cc1ccccc1-c1nnc(C2CCC(c3ccccc3)CC2)o1 (stereo not given), the survival was inactive: 112%.
In the case of Fc1ccc(-c2cc(-c3ccc(F)cc3)c3c(n2)-c2cc(F)ccc2OC3)cc1, the survival is reported as inactive: 118%.
With Fc1ccc(Nc2nc(-c3cccc(Cl)c3)c3c(n2)-c2ccccc2OC3)c(F)c1 the survival was inactive: 109%.
For Cc1cccc(NC(=O)Cn2c(=O)n(CC3CCC(C(=O)NCCc4ccccc4)CC3)c(=O)c3ccccc32)c1 (stereo not given), the survival was inactive: 64%.
With CCOc1ccc2nc(N3CCCC(C(=O)Nc4ccccc4CC)C3)sc2c1 (stereo not given) the survival was inactive: 81%.
In the case of CCc1ccc(NC(=O)CSc2nc(-c3ccc(C)cc3)nc3c2Cc2c(CO)cnc(C)c2O3)cc1, the survival is reported as inactive: 115%.
For CCOC(=O)c1c(NC(=O)c2cc(-c3cccc(Cl)c3)on2)sc(C)c1C, the survival was inactive: 87%.
CCc1ccc(-c2nc3cc(NC(=O)c4ccc(C)c(C)c4)ccc3o2)cc1 was tested, and the survival was inactive: 137%.
For COc1ccc(S(=O)(=O)n2nc(-c3ccco3)nc2NCc2ccc(C(C)C)cc2)cc1, the survival was inactive: 97%.
In the case of CCOc1ccc(NC(=O)c2nc(S(=O)(=O)Cc3ccccc3F)ncc2Cl)cc1, the survival is reported as inactive: 44%.
Cc1c(NC(=O)c2cccs2)cccc1-c1nc2cc(Cl)ccc2o1 was tested, and the survival was inactive: 60%.
CCOc1ccc(C(=O)Nc2ccc(OCc3cc(=O)n4cccc(C)c4n3)cc2)cc1 was tested, and the survival was active: 14%.
In the case of O=C(NCCCN1CCN(c2ccccc2F)CC1)c1ccc2nc(CCc3ccccc3)oc2c1, the survival is reported as inactive: 79%.
For COc1cccc(NC(=O)Cn2c(=O)n(Cc3ccc(F)cc3)c(=O)c3sc4ccccc4c32)c1, the survival was inactive: 77%.
With COc1ccc(S(=O)(=O)NCc2cccn2Cc2cc(C)ccc2C)cc1OC the survival was inactive: 82%.
With CCc1nnc2c3ccccc3nc(Nc3cc(C)cc(C)c3)n12 the survival was inactive: 37%.
CC(=O)NCCNC(=O)CCCc1nnc2n(CC(C)C)c(=O)c3sccc3n12 was tested, and the survival was inactive: 100%.
In the case of COc1ccc(-c2cc(-c3nc(-c4cc(OC)c(OC)c(OC)c4)no3)[nH]n2)c(OC)c1, the survival is reported as inactive: 73%.
For CCOc1ccc(CCNC(=O)c2c(C)oc3ncn(CC(C)C)c(=O)c23)cc1OCC, the survival was inactive: 77%.
CC(=O)N1CCc2c(sc3c2c(=O)n(-c2ccccc2)c(=O)n3CC(=O)Nc2cc(C)cc(C)c2)C1 was tested, and the survival was inactive: 54%.
For Cc1ccc(-n2nc(C(=O)N3CCN(c4ccccc4F)CC3)c(=O)n(C)c2=O)cc1, the survival was inactive: 92%.
With CCCCCc1ccc(-c2ccc(Br)cc2)nc1 the survival was active: -3%.
With O=C(NCc1ccccc1F)C(=O)NCC(c1ccc2c(c1)OCO2)N1CCOCC1 (stereo not given) the survival was inactive: 71%.
For CC1C(C#N)=C(N)OC2=C1C(=O)CCC2 (stereo not given), the survival was inactive: 104%.
In the case of Cc1cc(Br)ccc1NC(=O)CSc1c2c(nc3ccccc13)CCC2, the survival is reported as inactive: 75%.
In the case of CCc1ccc(NC(=O)CSc2nc(C)c(C(=O)Nc3ccccc3)c(-c3ccc(OC)c(OC)c3)c2C#N)cc1, the survival is reported as inactive: 85%.
CCCC1C2CN(Cc3ccccc3)CC=C2C(C#N)=C(N)C1(C#N)C#N (stereo not given) was tested, and the survival was inactive: 109%.
In the case of O=C(CCc1ccccc1)Nc1ccccc1, the survival is reported as inactive: 105%.
With CCOc1ccc(CNC(=O)CCc2c(C)nn(-c3ccc(N4CCCCC4)nn3)c2C)cc1 the survival was inactive: 66%.
For CSc1ccc(CCNC(=O)c2cc(C)nc3c2c(C)nn3-c2cccc(F)c2)cc1, the survival was inactive: 75%.
CC(C)(C)C(=O)CSc1nc2ccsc2c(=O)n1Cc1ccccc1Cl was tested, and the survival was inactive: 73%.
In the case of COc1cccc(CSc2nc3n(n2)C(c2ccc(C(=O)O)cc2)C(C(=O)Nc2ccccc2)=C(C)N3)c1 (stereo not given), the survival is reported as inactive: 80%.
In the case of O=C(OCc1cc(=O)n2nc(-c3cccs3)sc2n1)c1ccccc1Cl, the survival is reported as inactive: 75%.
Cc1nc2ccccc2c(=O)n1CC(=O)N(C1CCCCC1)C1CCCCC1 was tested, and the survival was inactive: 114%.
CCOc1ccccc1NC(=O)CSc1nc2c(oc3ccccc32)c(=O)n1-c1ccc(F)cc1 was tested, and the survival was inactive: 92%.
For O=S1(=O)CCC(NNC(=S)Nc2ccccc2)C1 (stereo not given), the survival was inactive: 95%.
COc1ccc(NC(=O)c2cc3cc(C)ccc3[nH]2)cc1 was tested, and the survival was inactive: 117%.
With COc1ccccc1N1CCN(c2ccc(=O)n(CC(=O)NCc3ccc(F)cc3)n2)CC1 the survival was inactive: 135%.
For CC1CC(c2ccccc2)n2nc(N)nc2N1 (stereo not given), the survival was inactive: 96%.
With CSc1ccccc1-c1nnc(NC(=O)c2ccc3c(c2)OCCO3)o1 the survival was inactive: 123%.
For O=C(NC1CCCCC1)N1CCc2ccccc2C1, the survival was inactive: 116%.
In the case of Cc1c(C(=O)N2CCCCCC2)c(S(=O)(=O)NCc2ccccc2)c(C)n1C, the survival is reported as inactive: 68%.
For O=C(CSc1nc(=O)n(CCN2CCOCC2)c2c1CCC2)Nc1ccc(Cl)c(Cl)c1, the survival was inactive: 83%.
O=C(Nc1ccc(F)c(Cl)c1)Nc1c[nH]c(=O)[nH]c1=O was tested, and the survival was inactive: 80%.
For COCCN(C(=O)c1ccco1)c1nnc(-c2ccc(F)cc2)s1, the survival was inactive: 111%.
In the case of CC(=O)Nc1ccccc1-c1nc2ccccc2n(CC(=O)Nc2cccc(C)c2C)c1=O, the survival is reported as inactive: 119%.
In the case of O=C(Nc1nccs1)c1ccc(N2C(=O)CCC2=O)cc1, the survival is reported as inactive: 111%.
With Cc1ccc2nc(SCc3nc(-c4ccc(Cl)cc4)no3)[nH]c2c1 the survival was active: -4%.
For CC(CNC(=O)c1cnn(-c2ccc(F)cc2)c1-n1cccc1)c1ccccc1 (stereo not given), the survival was inactive: 79%.
In the case of O=C(CN1CCC(n2nnc3cc(C(F)(F)F)ccc32)CC1)N1CCc2ccccc21, the survival is reported as inactive: 99%.
CCOC(=O)c1cc(-c2ccccc2)n(CCC(=O)Nc2ccccc2CC)c1C was tested, and the survival was inactive: 69%.
Cc1cc(C)cc(N2C(=O)CSC23C(=O)N(Cc2c(F)cccc2Cl)c2ccccc23)c1 (stereo not given) was tested, and the survival was inactive: 138%.
For Cc1cc2c(cc1S(=O)(=O)Nc1cccc(Cl)c1C)n(C)c(=O)c(=O)n2C, the survival was inactive: 81%.
For Cc1cccc2nc(-c3ccccn3)c(Nc3ccc(F)cc3)n12, the survival was active: 4%.
In the case of Cc1cc(C)c(OCC(=O)O)c(Cl)c1, the survival is reported as inactive: 121%.
COc1ccc(C2CC(=O)N(Cc3ccc(C)cc3)c3c2c(C)nn3-c2nc(C)cc(C)n2)c(OC)c1 (stereo not given) was tested, and the survival was inactive: 120%.
With COc1cc(OC)c(OC)cc1CNCc1ccco1 the survival was inactive: 120%.
In the case of Cc1cccc(CSc2nc3c([nH]c4ccccc43)c(=O)n2C)c1, the survival is reported as inactive: 69%.
CCCCC12CN3CC(C)(CN(C1)C3c1c[nH]c3ccccc13)C2=O (stereo not given) was tested, and the survival was inactive: 82%.
CCCCC(CC)CNC(=O)Cc1ccc(-n2c(=O)[nH]c3ccccc3c2=O)cc1 (stereo not given) was tested, and the survival was inactive: 94%.
In the case of CCOc1ccc(CC(=O)Nc2c(C(=O)c3ccccc3)oc3ccc(Cl)cc23)cc1OCC, the survival is reported as inactive: 69%.
In the case of C/C(CC(O)c1ccc2ccccc2n1)=N/O (stereo not given), the survival is reported as inactive: 105%.
For CC(=O)N1c2ccc(S(=O)(=O)Nc3ccc(C)c(Cl)c3)cc2CC1C (stereo not given), the survival was inactive: 117%.
In the case of COc1ccc(N2CCN(S(=O)(=O)c3ccc(-c4coc(C)n4)cc3)CC2)cc1, the survival is reported as inactive: 70%.
Cc1cc(Nc2ccc(F)cc2F)nc(-n2nc(C)cc2C)n1 was tested, and the survival was inactive: 59%.
CCc1cc2c(cc3c(=O)n(CCCC(=O)NCc4cccc(Br)c4)ncn32)s1 was tested, and the survival was inactive: 74%.
In the case of COc1cc2c(cc1OC)n(CC(=O)c1cc(C)ccc1C)c(=O)n1nc(CCn3nc(C)cc3C)nc21, the survival is reported as inactive: 71%.
Cc1c(CCNC(=O)c2ccc(C(C)(C)C)cc2)sc2nc(-c3ccc(F)cc3)nn12 was tested, and the survival was inactive: 105%.
